Only a part is listed here, and it is no random draw. For some of these results: The list includes weakly bound sequences.

Common to all, as to assay: protein-binding microarray (PBM)
Common to all, as to conditions: PBM: ~300 nM protein, 6 mM HEPES pH 7.8, 80 mM KCl, 0.5 mM EDTA, 0.5 mM EGTA, 6% glycerol, 35 ng/ul poly-dIdC, 1% milk, 1 h, room temperature; Ap Aiptasia and Nv Nematostella (sea anemones) / Co Capsaspora / Aq Amphimedon (sponge) / Dm Drosophila / Hu human; RHD is the Rel homology domain; high values mean tight binding; most listed sequences are background and not binding sites; double strand, one strand shown

One assay concerns the target T1, GST-Co-NF-kB (UniProt F1ARL5).
T1 sequence: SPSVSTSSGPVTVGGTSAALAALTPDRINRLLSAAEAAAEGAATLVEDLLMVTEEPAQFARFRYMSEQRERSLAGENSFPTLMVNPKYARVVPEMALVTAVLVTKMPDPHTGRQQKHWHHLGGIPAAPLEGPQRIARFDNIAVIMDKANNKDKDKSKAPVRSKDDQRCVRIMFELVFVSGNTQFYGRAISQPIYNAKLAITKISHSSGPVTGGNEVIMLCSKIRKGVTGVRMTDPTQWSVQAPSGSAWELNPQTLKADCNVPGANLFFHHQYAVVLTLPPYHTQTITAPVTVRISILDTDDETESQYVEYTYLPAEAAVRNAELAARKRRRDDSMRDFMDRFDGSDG

The next assay concerns the target T2, GST-Dm-Relish (UniProt Q94527).
T2 sequence: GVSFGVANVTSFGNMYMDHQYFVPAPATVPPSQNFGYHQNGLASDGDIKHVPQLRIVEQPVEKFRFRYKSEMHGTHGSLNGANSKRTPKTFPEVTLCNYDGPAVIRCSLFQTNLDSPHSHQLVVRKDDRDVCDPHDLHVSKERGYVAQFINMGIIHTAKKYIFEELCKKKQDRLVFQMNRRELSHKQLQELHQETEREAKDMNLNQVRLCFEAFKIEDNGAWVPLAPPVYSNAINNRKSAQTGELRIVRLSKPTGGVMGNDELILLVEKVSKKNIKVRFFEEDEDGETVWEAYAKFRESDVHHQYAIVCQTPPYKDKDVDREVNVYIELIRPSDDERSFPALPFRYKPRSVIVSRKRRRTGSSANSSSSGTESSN

The target in another assay is T3, GST-Aq-NF-kB (UniProt A9Y5G7).
T3 sequence: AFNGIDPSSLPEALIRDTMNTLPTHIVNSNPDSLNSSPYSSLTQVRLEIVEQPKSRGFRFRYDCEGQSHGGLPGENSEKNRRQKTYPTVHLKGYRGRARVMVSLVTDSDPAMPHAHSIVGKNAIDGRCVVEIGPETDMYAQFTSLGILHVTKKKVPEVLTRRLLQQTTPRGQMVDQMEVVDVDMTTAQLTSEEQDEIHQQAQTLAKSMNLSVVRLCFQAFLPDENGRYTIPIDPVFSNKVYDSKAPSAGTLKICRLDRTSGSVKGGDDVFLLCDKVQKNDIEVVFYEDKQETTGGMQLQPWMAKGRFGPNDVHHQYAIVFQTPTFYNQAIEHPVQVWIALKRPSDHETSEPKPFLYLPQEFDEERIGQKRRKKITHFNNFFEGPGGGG

A further assay addresses T4, GST-Ap-NF-kB RHD (UniProt A0A913YAJ5).
T4 sequence: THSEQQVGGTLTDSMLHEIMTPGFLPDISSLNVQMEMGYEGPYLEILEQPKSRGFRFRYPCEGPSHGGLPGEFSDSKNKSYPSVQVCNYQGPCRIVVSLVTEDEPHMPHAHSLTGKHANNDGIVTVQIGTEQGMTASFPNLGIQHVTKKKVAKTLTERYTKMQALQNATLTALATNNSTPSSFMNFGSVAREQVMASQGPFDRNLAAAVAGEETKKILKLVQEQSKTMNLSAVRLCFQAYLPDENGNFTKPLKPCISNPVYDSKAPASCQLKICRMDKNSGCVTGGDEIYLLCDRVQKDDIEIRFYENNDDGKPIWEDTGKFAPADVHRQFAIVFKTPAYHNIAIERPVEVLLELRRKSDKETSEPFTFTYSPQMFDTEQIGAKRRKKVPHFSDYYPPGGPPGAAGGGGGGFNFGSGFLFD

For the sequence “CCGATTAACATCAGGACCGTCCCTGATGTTAATCGGGTCTTGATTCGCTTGACGCTGCTG”, the binding signal was -0.0707 z-score with GST-Co-NF-kB, 0.526 z-score with GST-Dm-Relish and 6.42 z-score in the assay with GST-Aq-NF-kB.

Regarding “CCGATTAACATCAGGGGGGATAATGATGTTAATCGGGTCTTGATTCGCTTGACGCTGCTG”, the binding signal in the assay with GST-Dm-Relish worked out at 4.67 z-score; with GST-Aq-NF-kB, 4.72 z-score.

Take “CCGATTAACATCACATTTTCCCATGATGTTAATCGGGTCTTGATTCGCTTGACGCTGCTG”: the figures for the binding signal with GST-Co-NF-kB, with GST-Dm-Relish and with GST-Aq-NF-kB were 3.98 z-score, 1.33 z-score and 2.13 z-score, respectively.

For the sequence “CCGATTAACATCAGGAAGCTCCCTGATGTTAATCGGGTCTTGATTCGCTTGACGCTGCTG”, the binding signal with GST-Co-NF-kB is -0.233 z-score; with GST-Dm-Relish, -0.142 z-score; in the assay with GST-Aq-NF-kB it was 3.72 z-score.

Turning to “CCGATTAACATCACCAACCCCCCTGATGTTAATCGGGTCTTGATTCGCTTGACGCTGCTG”, the binding signal with GST-Co-NF-kB is 3.02 z-score; in the assay with GST-Dm-Relish, 5.37 z-score; with GST-Aq-NF-kB, 3.88 z-score.

“CCGATTAACATCAGGGAAGACGTTGATGTTAATCGGGTCTTGATTCGCTTGACGCTGCTG”: the binding signal came to 0.824 z-score with GST-Dm-Relish and 1.11 z-score with GST-Aq-NF-kB.

Turning to “CCGATTAACATCACATTTTTCCCTGATGTTAATCGGGTCTTGATTCGCTTGACGCTGCTG”, the binding signal stood at 5.64 z-score in the assay with GST-Co-NF-kB, 2.56 z-score in the assay with GST-Dm-Relish and 4.26 z-score in the assay with GST-Aq-NF-kB.

Take “CCGATTAACATCAGGAAGTTCCCTGATGTTAATCGGGTCTTGATTCGCTTGACGCTGCTG”: the binding signal was found to be 4.82 z-score in the assay with GST-Dm-Relish and 7.74 z-score with GST-Aq-NF-kB.

Take “CCGATTAACATCACGCAATTCCCTGATGTTAATCGGGTCTTGATTCGCTTGACGCTGCTG”: the binding signal with GST-Co-NF-kB was 2.33 z-score; in the assay with GST-Dm-Relish, 1.52 z-score; in the assay with GST-Aq-NF-kB, 3.43 z-score.

“CCGATTAACATCAGAATCTCCCCTGATGTTAATCGGGTCTTGATTCGCTTGACGCTGCTG”: the values for the binding signal with GST-Co-NF-kB, with GST-Dm-Relish and in the assay with GST-Aq-NF-kB were 6.25 z-score, 3.02 z-score and 5.81 z-score, respectively.

In the case of “CCGATTAACATCAAGGATCCCCCTGATGTTAATCGGGTCTTGATTCGCTTGACGCTGCTG”, the binding signal with GST-Co-NF-kB amounted to 5.03 z-score; with GST-Dm-Relish, 8.82 z-score; with GST-Aq-NF-kB, 6.4 z-score.

With “CCGATTAACATCAGGGTGTTTTATGATGTTAATCGGGTCTTGATTCGCTTGACGCTGCTG”, the binding signal with GST-Co-NF-kB was found to be 1.55 z-score; in the assay with GST-Dm-Relish, 3.11 z-score; in the assay with GST-Aq-NF-kB, 4.69 z-score.

In the case of “CCGATTAACATCAAAATTCCCTCTGATGTTAATCGGGTCTTGATTCGCTTGACGCTGCTG”, the binding signal was 3.2 z-score in the assay with GST-Co-NF-kB, 5.36 z-score in the assay with GST-Dm-Relish and 6.5 z-score in the assay with GST-Aq-NF-kB.

As for “CCGATTAACATCAGGGGGGAAACTGATGTTAATCGGGTCTTGATTCGCTTGACGCTGCTG”, the binding signal was 11.1 z-score with GST-Co-NF-kB, 5.47 z-score in the assay with GST-Dm-Relish and 5.87 z-score with GST-Aq-NF-kB.

Turning to “CCGATTAACATCAAGGGGAATACTGATGTTAATCGGGTCTTGATTCGCTTGACGCTGCTG”, the results for the binding signal in the assay with GST-Co-NF-kB, in the assay with GST-Dm-Relish and with GST-Aq-NF-kB were 6.16 z-score, 6.38 z-score and 6.62 z-score, respectively.

“CCGATTAACATCAGGTAATCCCATGATGTTAATCGGGTCTTGATTCGCTTGACGCTGCTG”: the binding signal was found to be 0.665 z-score in the assay with GST-Co-NF-kB, 6.13 z-score in the assay with GST-Dm-Relish and 3.49 z-score with GST-Aq-NF-kB.

Take “CCGATTAACATCAAAAACACCCCTGATGTTAATCGGGTCTTGATTCGCTTGACGCTGCTG”: the values for the binding signal with GST-Co-NF-kB, with GST-Dm-Relish and in the assay with GST-Aq-NF-kB were 3.98 z-score, 5.77 z-score and 4.95 z-score, respectively.

Turning to “CCGATTAACATCAGGGTTTCACCTGATGTTAATCGGGTCTTGATTCGCTTGACGCTGCTG”, the values for the binding signal with GST-Co-NF-kB, with GST-Dm-Relish and in the assay with GST-Aq-NF-kB were -0.722 z-score, 5.71 z-score and 3.71 z-score, respectively.

The sequence “CCGATTAACATCAGGGAAAGCACTGATGTTAATCGGGTCTTGATTCGCTTGACGCTGCTG” gave a binding signal with GST-Ap-NF-kB RHD of 3.61 z-score.

With “CCGATTAACATCAATCCCCCCCGTGATGTTAATCGGGTCTTGATTCGCTTGACGCTGCTG”, the binding signal was 6.77 z-score in the assay with GST-Dm-Relish and 5.33 z-score in the assay with GST-Aq-NF-kB.

For the sequence “CCGATTAACATCAACATTTCCCCTGATGTTAATCGGGTCTTGATTCGCTTGACGCTGCTG”, the binding signal with GST-Dm-Relish was 3.46 z-score; with GST-Aq-NF-kB it was 5.86 z-score.

Take “CCGATTAACATCACATATTTCCCTGATGTTAATCGGGTCTTGATTCGCTTGACGCTGCTG”: the binding signal in the assay with GST-Ap-NF-kB RHD worked out at 3.32 z-score.

With “CCGATTAACATCAGGGGGGTGGATGATGTTAATCGGGTCTTGATTCGCTTGACGCTGCTG”, the binding signal was found to be 3.78 z-score with GST-Dm-Relish and 4.03 z-score with GST-Aq-NF-kB.

Turning to “CCGATTAACATCAAGGGGGATACTGATGTTAATCGGGTCTTGATTCGCTTGACGCTGCTG”, the binding signal with GST-Ap-NF-kB RHD came to 6.74 z-score.

On to “CCGATTAACATCACGGGGATTTATGATGTTAATCGGGTCTTGATTCGCTTGACGCTGCTG”, for which the binding signal was 8.32 z-score with GST-Dm-Relish and 5.47 z-score in the assay with GST-Aq-NF-kB.

Regarding “CCGATTAACATCAGGAAGTCCCCTGATGTTAATCGGGTCTTGATTCGCTTGACGCTGCTG”, the binding signal with GST-Dm-Relish came to 8.96 z-score; with GST-Aq-NF-kB, 8.77 z-score.

In the assay with GST-Ap-NF-kB RHD, “CCGATTAACATCACTCCCCCCCATGATGTTAATCGGGTCTTGATTCGCTTGACGCTGCTG” showed a binding signal of 5.11 z-score.

For the sequence “CCGATTAACATCAGGGGATGTACTGATGTTAATCGGGTCTTGATTCGCTTGACGCTGCTG”, the binding signal with GST-Dm-Relish worked out at 9.92 z-score; with GST-Aq-NF-kB, 5.33 z-score.

These data come from PMC5700166.
